Source: PubChem BioAssay AID1347073 (National Center for Advancing Translational Sciences (NCATS), 2019)
About 200 (0.44%) of roughly 45,000 compounds were called active. Another 7% or so got no clear call; they are omitted. The call rests on the fitted dose curve; in most records, active means well fitted activation curve with a large enough effect; inconclusive means small, poorly fitted or top-dose-only effect; inactive means no such curve, though single readings can be large or run the other way. This is one part of the list.

assay: qHTS of TDP-43 Inhibitors: NCGC Sytravon Library Screen; details: yeast TDP-43 toxicity rescue, BacTiter-Glo growth, 24 h; series mostly up to 46.1 µM; growth rescue (activation): at the top concentration; further: nearly all actives have a fitted effect of over 55% in size; on growth rescue (activation): 0% is about no effect
Outline: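 TDP-43-expressing yeast, pregrown in raffinose, seeded at OD600 0.02 in galactose medium with compound for 24 hr at 30 deg C. Growth read by BacTiter-Glo luminescence, so rescue of toxicity appears as activation.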
Potency means the concentration at half of the fitted maximal effect.

SMILES | growth rescue (activation) | Potency
Cc1sc2nc(SCC(=O)N(CCO)CCO)nc(N)c2c1C | inactive: 19% | 
O=C(NS(=O)(=O)Oc1ccc(F)c(Cl)c1)OC[C@@H]1CCCN2CCCCC12 (stereo partly drawn) | inactive: 7.17% | 
Cc1ccc(/C([O-])=C(/C(=S)NCc2ccco2)[n+]2ccccc2)cc1[N+](=O)[O-] | inactive: 0.696% | 
COc1ccc(S(=O)(=O)NCC2CC3C=CC2C3)cc1OC (stereo not drawn) | inactive: 15.7% | 
O=C(NCCO)c1cc2c([nH]c3ccccc32)c(-c2ccc(F)cc2)n1 | inactive: -1.47% | 
C=CCn1c(-c2ccccc2[N+](=O)[O-])n[nH]c1=S | inactive: 2.35% | 
CCc1cc2c(C)cc(C)cc2nc1SCC(=O)Nc1cc(C)on1 | inactive: 7.41% | 
O=C(CCS(=O)(=O)c1ccc(Cl)cc1)Nc1nccs1 | inactive: 6.38% | 
COc1ccccc1/C=N\Nc1cc(C)nc(-n2nc(C)cc2C)n1 | inactive: 21.3% | 
CC(Sc1nncn1-c1ccccc1)C(=O)Nc1cccc([N+](=O)[O-])c1 (stereo not drawn) | inactive: 12.8% | 
NC(=O)c1nsc(C(=O)N(CC(=O)NC2CCCC2)c2ccc(F)c(Cl)c2)c1N | inactive: 10.6% | 
COc1ccc(/C=C/C(=O)N2CCN(S(=O)(=O)/C=C/c3ccccc3)CC2)cc1OC | inactive: 8.25% | 
O=C(NCc1cccnc1)/C(=C/c1ccc([N+](=O)[O-])cc1)NC(=O)c1ccccc1 | inactive: 14.9% | 
CCOC(=O)c1c(C)[nH]c(C(=O)Nc2ccc(NC(C)=O)cc2)c1C | inactive: -1.36% | 
COc1cc2c(cc1OC)C(C(=O)N(C)Cc1ccccc1)C(c1cccnc1)N(C)C2=O (stereo not drawn) | inactive: 11.5% | 
CCc1ccc2c(CN3CCN(Cc4ccccc4)CC3)cc(=O)oc2c1 | inactive: -0.28% | 
COc1ccc(OCCNC(=O)c2ccc3nc(C)c(N(C)C(=O)CCc4ccccc4)n3c2)cc1 | inactive: 8.7% | 
COc1ccc(CCC(=O)OCC(=O)Nc2sccc2C#N)cc1 | inactive: 11.3% | 
C/C(=N\Nc1ccc([N+](=O)[O-])cc1)c1ccc2c(c1)OCO2 | inactive: 4.95% | 
O=C(CCCCCl)Nc1c2c(nc3ccccc13)CCC2 | inactive: 11.9% | 
COc1ccc(Nc2ncnc3ccc(Br)cc23)cc1OC | inactive: -12.3% | 
CCC(C(=O)OC)(C(=O)OC)c1ccc([N+](=O)[O-])cc1 | inactive: 22.8% | 
CCOC(=O)CC(NC(=O)CCc1c(C)nc2nc(C)nn2c1C)c1ccc(C)cc1 (stereo not drawn) | inactive: 7.13% | 

SMILES | growth rescue (activation) | Potency
Cc1cccc(-n2c(C)cc(C=C(C#N)C#N)c2C)c1 | inactive: -26% | 
O=C(NCCCNC(=O)c1cccnc1)c1ccc(Cl)cc1 | inactive: -5.71% | 
Cc1ccc(C(=O)NCC(=O)NCc2ccccc2F)s1 | inactive: 11.7% | 
O=C(Nc1ccccc1Cl)c1cccc(NC(=O)c2cccs2)c1 | inactive: 37.3% | 
CN(CCN1CCOCC1)Cc1nc(-c2ccc(Cl)cc2)no1 | inactive: 0.128% | 
Cc1cc(C)cc(N(C(C)C(=O)NCc2ccc3c(c2)OCO3)S(C)(=O)=O)c1 (stereo not drawn) | inactive: -3.88% | 
CCN(CC)C(=O)CSc1nnc(-c2ccccn2)n1Cc1ccccc1 | inactive: 29.5% | 
COc1ccc(N2CCN(C(=S)NC(=O)c3cccs3)CC2)c([N+](=O)[O-])c1 |  | active: 28.2 µM
O=C(CN1C(=O)CCS(=O)(=O)c2ccccc21)NCc1ccc(F)cc1 | inactive: -14.7% | 
COc1ccc(NC(=S)N2CCCC2)c(OC)c1 | inactive: 0.368% | 
O=C(Nc1ccc(OCc2ccccc2)cc1)Nc1nnc([C@H]2C[C@H](O)[C@@H](CO)O2)s1 | inactive: 5.34% | 
Cc1ccc(CN2C(=O)CCC2C(=O)NC2CCCC2)cc1 (stereo not drawn) | inactive: 32.6% | 
COc1ccc(OCCN2CCC(C(=O)NC(c3ccc(F)cc3)c3ccc4ccccc4n3)CC2)cc1 (stereo not drawn) | inactive: 18.6% | 
O=C(COc1ccc(Oc2ccccc2)cc1)NC1CCS(=O)(=O)C1 (stereo not drawn) | inactive: 5.09% | 
COCCNC(=O)C1(C)CCCN(Cc2cccc(F)c2)C1 (stereo not drawn) | inactive: -16.4% | 
O=C(O)c1ccc(N2C(=O)CC(N3CCN(c4cccc(C(F)(F)F)c4)CC3)C2=O)cc1 (stereo not drawn) | inactive: 20% | 
O=C(NCCc1ccccc1)Nc1cccc(Cl)c1 | inactive: 18.5% | 
O=C(NCc1ccccn1)c1ccc(N2CCCC2)c([N+](=O)[O-])c1 | inactive: 12% | 
CCOc1cc(NC(=S)NCCOC)c(OCC)cc1NC(=O)c1cccs1 | inactive: -0.449% | 
COC(=O)c1ccc(/C=C2\CCn3c2nc2cc(C(=O)O)ccc2c3=O)cc1 | inactive: 6.42% | 
COc1ccc(CC(=O)c2cc(OC)c(OC)cc2CC(=O)O)cc1OC | inactive: -29.5% | 
O=C(NCc1ccc(-c2nc3ccccc3s2)cc1)c1cc2ccccc2o1 | inactive: -0.429% | 
O=C(CN1CCN(C(=O)N2CCOCC2)CC1)Nc1cc(Cl)ccc1Cl | inactive: 11.9% | 

SMILES | growth rescue (activation) | Potency
O=C(NC1CCCCC1)C(c1ccccc1)N(Cc1ccco1)C(=O)c1csnn1 (stereo not drawn) | inactive: 8.53% | 
Nc1ccc(C(=O)OCC(=O)N2CCc3ccccc3C2)cc1[N+](=O)[O-] | inactive: 6.2% | 
CCOc1ccc(CC(C(N)=O)C(N)=O)cc1 | inactive: 4% | 
COc1cccc(CC(NC(C)=O)C(=O)NC2CCN(C(=O)c3ccc(Cl)cc3)CC2)c1OC (stereo not drawn) | inactive: 17.5% | 
CCOc1nc(NCCN2CCOCC2)nc(Nc2ccc([N+](=O)[O-])cc2)n1 | inactive: 3.19% | 
O=C(NC1CCCC1)C1CCN(C(=O)c2ccc(Cl)cc2)CC1 | inactive: 8.98% | 
C[C@H](NC(=O)c1ccco1)C(=O)N1CCCC1 | inactive: -41.1% | 
CC(=O)Nc1cccc(-c2ccnc3c2CC(C(=O)Nc2cccnc2)O3)c1 (stereo not drawn) | inactive: 4.58% | 
Cc1ccc(NC(=O)CN(C)C(=O)c2ccc(Br)o2)cc1 | inactive: -3.69% | 
CCOc1cc(CNc2nn[nH]n2)ccc1OCC(=O)NC(C)(C)C | inactive: 9.06% | 
Cc1ccc(C)c(C(=O)c2ccccc2NC(=O)c2ccccn2)c1 | inactive: 32.3% | 
CCn1cc(C(=O)NCCc2ccccc2)c(=O)c2cc(S(=O)(=O)N3CCCC3)ccc21 | inactive: 19.4% | 
Fc1cccc(Cl)c1CSC1=NCCS1 | inactive: 8.91% | 
CCS(=O)(=O)N1CCC(C(=O)Oc2ccc(C(=O)OC)cc2)CC1 | inactive: -8.21% | 
Cn1nnc2cc(C(=O)Nc3ccccc3F)ccc21 | inactive: 2.25% | 
CC(CCc1ccccc1)NCC(O)COc1ccccc1 (stereo not drawn) | inactive: 8.03% | 
N=c1oc2ccccc2cc1C(=O)Nc1ccc(F)cc1 | inactive: -5.23% | 
Cc1cccc(C)c1NC(=O)C(c1ccccc1)N1CCN(C(=O)c2ccco2)CC1 (stereo not drawn) | inactive: 0.838% | 
O=C(Nc1ccc(Cl)c(Cl)c1)Nc1ccccc1C(=O)O | inactive: -1.9% | 
Cc1ccc(NC(/C=C/N(C)C)=C/C(=O)C(F)(F)F)c(C)c1 | inactive: -1.64% | 
Cc1ccc(C(=O)N(C)c2ccc(OCC(=O)N3c4ccc(C)cc4C4CN(C)CCC43)cc2)cc1 (stereo not drawn) | inactive: -16% | 
O=C(Nc1cccc2ncccc12)c1ccco1 | inactive: 21.7% | 
